± gives the standard deviation. Whole data set: some 5,500 sequences, median “pre-steady-state target cleavage rate” near 0.1, cut for the highest 2% near 0.64. The list shows a part of the results, in another mix than the full data.
What follows are sequences tested on MIWI (PIWIL1) piRISC loaded with piRNA #2 (30 nt) (assay: pre-steady-state target cleavage rate (min^-1); MIWI and MILI are mouse PIWI proteins and EfPiwi is from a freshwater sponge; tags in brackets are library labels; higher = faster piRNA-guided slicing of the target). Details: guide: piRNA #2 5'p-UUAGGUAACCCAGUAGAUCCAGAGGAAUUC; auxiliary factor: 500 nM mouse GTSF1.
How it was run: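 Cleave-'n-Seq measured uncleaved targets by sequencing after a transcribed, DNA-blocked target RNA library […] was mixed with 1 nM active affinity-purified piRISC holding one synthetic guide, with or without 500 nM GTSF1 partner protein, at 33 °C in HEPES–potassium acetate buffer for 0–8 or 0–960 min. Counts were normalised to depth and to weakly complementary targets, three trials were pooled, and k3 was capped at 0.0001 min^-1. A burst-and-steady-state fit gave the pre-steady-state cleavage rate.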

Row | Sequence | pre-steady-state target cleavage rate
1 | CUUUUGCUCUGGAUCUACUGGCUUACCUAA | 0.0593 ± 0.0096
2 | CAAUUCCUCUGGAUCUACUGGGUUACCGAA | 0.275 ± 0.049
3 | CUUAAGCUCUGCAUCUACUGGGUUACCUAA | 0.162 ± 0.03
4 | GAAUUCCUCUGGAUCUACUGGGUUACCUUA | 0.224 ± 0.041
5 | CUUAAGGAGUGAGAUCUACUGGGUUACCUAA | 0.01 ± 0.0054
6 | CUUUUCCUCUGGAUCUACUGGGUUACCUAC [g2:g27:cont:t1C] | 0.31 ± 0.038
7 | CUUAACCUCUGGGAUCUACUGGGUUACCUAA | 0.327 ± 0.024
8 | CUAUUCCUCUGGAUCUAGUGGGAUACCUAA | 0.0784 ± 0.013
9 | CUAUUCCACUGGAUCAACUGGGUUACCUAA | 0.473 ± 0.041
10 | CUUUUCCUCUGGAAUCUACUGGGUUACCUAA | 0.328 ± 0.037
11 | CAAUUCCUCUGGAUCUACGGGGUUACCUAA | 0.1 ± 0.012
12 | CUUAAGGUCUGGAUCUAGUGGGUUACCUUA | 0.0513 ± 0.011
13 | CUUUUCCUCUGGUUCAACUGGGUUACCUAA | 0.453 ± 0.037
14 | CUUAAGGAGUGGAUCUACAGGGUUUCCUAA | 0.0043 ± 0.0022
15 | CUAUUCCUCUGGAUGAUCUGGGUUACCUAA | 0.0129 ± 0.0054
16 | CUUAACCUCAGGAACUACUGGGUUACCUAA | 0.525 ± 0.034
17 | CUUAACCUCUCCAUCUACUGGGUUACCUAA | 0.398 ± 0.04
18 | GAAUUCCUCUCGAUCUACUCGGUUACCUAA | 0.123 ± 0.018
19 | CUUAACCUCUGCUACUACUGGGUUACCUAA | 0.282 ± 0.031
20 | CUUUUCCUCUGGAUCUACUGGGUUAGCUAA | 0.303 ± 0.046
21 | CUAUUCCUCUGGAUCUACUGGGUGUACCUAA | 0.311 ± 0.044
22 | CUUAUCGUCUGGAUCUACUGGCUUACCUAA | 0.0903 ± 0.034
23 | CUUAUCCUCUGGUUCUACAGGGUUACCUAA | 0.269 ± 0.03
24 | CUAUUCCUCAUGGAUCUACUGGGUUACCUAA | 0.582 ± 0.06

Row | Sequence | pre-steady-state target cleavage rate
25 | CUUAAGGUCUGGAUCUACUGGGUUACUAA | 0.0698 ± 0.014
26 | CAAUUCCACUGGAUCUACUGGGUUUCCUAA | 0.401 ± 0.056
27 | CUUAACCUCUGAGAUCUACUGGGUUACCUAA | 0.266 ± 0.026
28 | CUUAUCCACUGGAUGUACUGGGUUACCUAA | 0.417 ± 0.05
29 | CUUAAGGAGACCUUCUAGUCGGUUACCUAA | < 0.0001
30 | CUUUUCCUCAUGGAUCUACUGGGUUACCUAA | 0.436 ± 0.052
31 | CUAUUCCUCUGGAUCUACUGGGUAAGCUAA | 0.0968 ± 0.031
32 | CUUAUCCUCUGGAUGUACAGGGUUACCUAA | 0.445 ± 0.026
33 | CUAUUCGUCUGGAUCUACUGGGUUACGUAA | 0.553 ± 0.07
34 | CAAUUCCUCUGGAUCUACUGGGAUUCCUAA | 0.2 ± 0.068
35 | CUUUUCCUCUGGUAGUACUGGGUUACCUAA | 0.141 ± 0.017
36 | CUUAUCCUCAGGAUCUACUGGGUUACCAAA | 0.397 ± 0.083
37 | GAAUUCCUCUGGAUCUACUGGGUUACCGUAA | 0.275 ± 0.053
38 | CUUAAGGUCUGGAUCUACUGGGUUAGCUAA | 0.16 ± 0.025
39 | GAAUUCCUCUGGAUCAACUGGCUUACCUAA | 0.0793 ± 0.012
40 | CUAUUCCUCUGGAUCUACUGGGUAACCAAA | 0.283 ± 0.085
41 | CUUAACCUCUGGAUCUACUGGGAUACCUUA | 0.0769 ± 0.015
42 | CUUUUCCUGUGGAACUACUGGGUUACCUAA | 0.188 ± 0.056
43 | CUUUACCUGUGGAUCUACUGGGUUACCUAA | 0.351 ± 0.029
44 | CUUUUCCUCUGGUUCUACUGCGUUACCUAA | 0.4 ± 0.035
45 | CUUAACCUCUGGAACUACUGCGUUACCUAA | 0.477 ± 0.051
46 | CUUAACCACUGGAUCUACUGGGUUUCCUAA | 0.152 ± 0.019
47 | CUUAAGCUCUGGAACUACUGCGUUACCUAA | 0.246 ± 0.036
48 | CUUUUCCUCUGGAUCUACUGGAUUACCUAA | 0.368 ± 0.036

Row | Sequence | pre-steady-state target cleavage rate
49 | CUUAAGGUCUGGAUCGACUGGGUUACCUAA | 0.118 ± 0.024
50 | CUUUUCCUCUAGGAUCUACUGGGUUACCUAA | 0.252 ± 0.026
51 | GAAUUCCUCUGGAACUACUGGGUUACCUUA | 0.391 ± 0.097
52 | CUAUUCCUCUCGAUCUACAGGGUUACCUAA | 0.453 ± 0.025
53 | CUUAAGCUCUGGUUCUACUGGGUUACCUUA | 0.133 ± 0.017
54 | GAAUUGCUCUGGAUCUACUGGGUAACCUAA | 0.0363 ± 0.015
55 | CUUAACCUCUGGACCUACUGGGUUACCUAA | 0.0898 ± 0.012
56 | GAAUUCCUCUGGAUCUAGUGGGUUACCUUA | 0.104 ± 0.014
57 | CUUAAGGAGUGGAUCUACUGGGUUACGAAA | 0.0113 ± 0.0074
58 | CUUAAGGUCUGGAUCUACUGGGUCUACCUAA | 0.119 ± 0.015
59 | CAAUUCCUCUGGAUCUACUGGCUUACGUAA | 0.0986 ± 0.037
60 | CUUAAGGUCUGGAUCUACUGGGUGACCUAA | 0.136 ± 0.021
61 | GAAUUCCUCUGGAUCUACUCGGGUUACCUAA | 0.00824 ± 0.0045
62 | CUUUCUCCUCUGGAUCUACUGGGUUACCUAA | 0.265 ± 0.041
63 | CAAUUCGUCUGGAUCUACUGGGUUACCAAA | 0.31 ± 0.056
64 | CUUAAGCUCACGAUCUACUGGGUUACCUAA | 0.364 ± 0.033
65 | CUUAACCUCUGGAUCUACUGCGUAACCUAA | 0.0884 ± 0.018
66 | CUUAAGGACUAGAUCUACUGGGUUACCUAA | 0.0815 ± 0.036
67 | CUUAUCCUCUGGAUCUACUGGCUUUCCUAA | 0.0784 ± 0.024
68 | CUUAAGGAGACGAUCUACUGUGUUACCUAA | 0.0232 ± 0.0092
69 | GAAUUCCUCUGGAUCUAGUGGGUUAGCUAA | 0.0779 ± 0.015
70 | GAAUUCCUCUGGACUCUACUGGGUUACCUAA | 0.183 ± 0.034
71 | CUUAAGGUCUGGAUCUACUGGAUUACCUAA | 0.204 ± 0.034
72 | CUUAAGGACAGGAUCUACUGGGAUACCUAA | 0.012 ± 0.0086
